Reference: the supplement of paper PMC11417369
± gives the standard deviation of the averaged measurements. Some of the results follow.

system: PfAP2-G AP2 domain (GST-tagged); test: gcPBM binding intensity (ln(normalized median fluorescence intensity)); higher = stronger DNA binding
How it was run: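 Alexa488 anti-GST antibody, scanned at 488 nm, detected GST-tagged P. falciparum DNA-binding domains that had been expressed in E. coli and incubated for 1 h on an Agilent 4 × 180k array. The array carried primer-extended double-stranded 36-bp intergenic genomic probes and negative controls. Binding intensity is the highest Masliner-normalised natural-log median intensity across replicate spots of either orientation of each probe.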

Sequence | gcPBM binding intensity (ln)
ACAGGAGTATAACCTCGTACAAAATATATTTACCAT [XGTACX_site5805] | 10.8 ± 0.42
TAAAAATAAAGAAAATGTACATAAATAAAAATAAAG [XGTACX_site2279] | 11.2 ± 0.64
TATATATATACATAATGTACAAGAATTTGTATTGAA [XGTACX_site627] | 10.8 ± 0.45
TATAAAAAAAAAATTTGTACATAATAATATATATAT [XGTACX_site2074] | 10.7 ± 0.49
TTATATATAAAATACTGTACATTTAATTGATGGTTT [XGTACX_site2073] | 11.1 ± 0.72
GAATGAATTGTTATTAGTACACATGTGAATTATAAA [XGTACX_site6790] | 11.3 ± 0.76
ACACATTATAAAACTGTCGCTCATAAAGAAGAATGA [CACACA_negctrl_site999] | 10.17 ± 0.071
GCAACAAAAAATCAGACATGCATTTTAAAATGAATA [TGCATGCA_site846] | 9.67 ± 0.099
CATATTGAATATTTAACACACATTTCGCTTAATTCA [CACACA_site2086] | 9.95 ± 0.11
ATTTTTTTTTTTTTTATTCCCCTTTCGAAAAAAACC [CACACA_negctrl_site1139] | 10.2 ± 0.3
ATATGTTTACGTAAATGTACACGTCAGTATATTTCT [XGTACX_site8199] | 11.4 ± 0.64
ATATATATATAACATTGTACACACAAAGAAATAATA [XGTACX_site6440] | 11.2 ± 0.76
TTTTATAATAAGTATGTAAAAATTATATATATATAT [CACACA_negctrl_site711] | 9.97 ± 0.45
AACTTGTATATATACACACACACACTATCTTTTTTT [CACACA_site8601] | 10.08 ± 0.028
AAAAAGCAGGATTATACACACAAATATATATATGTT [CACACA_site1077] | 9.88 ± 0.16
TATATAAATTTAATAACACACATATAAAAATGAATT [CACACA_site2366] | 9.82 ± 0.071
CTTTTATATGTCTAATGTACGGGCAATATAAATTTG [XGTACX_site8323] | 11 ± 0.63
GTTGAGAAAATATGTGCATGTCAGGTTAAATTTTTA [TGCATGCA_site744] | 9.99 ± 0.028
ATTATATCATCTAAAACATGCACACATATGTACTCT [TGCATGCA_site949] | 11.1 ± 0.67

Sequence | gcPBM binding intensity (ln)
ATATATATATATATATGTACATAATATATGTCCTAT [XGTACX_site5087] | 11.1 ± 0.52
GTAAGCATAAATATATGTACATACATATACAGATAT [XGTACX_site3361] | 11.2 ± 0.57
TAAGATAAAAAAAATGCATGTTCTTATAATATTGTC [TGCATGCA_site939] | 9.53 ± 0.25
ATTAGTTTACACATATGTACATATATTACAACAAAA [XGTACX_site275] | 11.2 ± 0.67
TATGGAAATATATATTGTACGTATGACCTTTAAAAA [XGTACX_site3935] | 11.5 ± 0.93
TTACAAAAAAATAATTGTACATACAATTTCTGTTAT [XGTACX_site877] | 11.1 ± 0.58
TTTATATGTATGAAGTGTACACATATATTGTATTTT [XGTACX_site5731] | 11.6 ± 0.82
GGTGATATAATATATACATGCACATATATATTATTA [TGCATGCA_site970] | 9.9 ± 0.042
TACGGACATACTAACGGACACACGTAAGAAAAAAAA [CACACA_site602] | 11.1 ± 0.75
TTTATGTATTTTTATGCACACATGCGTGGCTTATAT [CACACA_site4374] | 10.2 ± 0.2
AATAAATATCTGTACACACACAAATAAATACATATC [CACACA_site5108] | 11.4 ± 0.96
TATAATAAAAATAATACACACATATATAGCAATCGT [CACACA_site3241] | 10.12 ± 0.071
CAGAATAATTTTATCGGTACACACTGTATGCATAAT [XGTACX_site736] | 11 ± 0.49
TTTATAATAAAATTTTTACACACTTTAAAAAAAAAA [CACACA_site8070] | 9.91 ± 0.16
TTTTTTTCAATATTTGCACACGATTATAATATTTAA [CACACA_site2237] | 10.07 ± 0.071
AATATTCGTAATTGATGTACTTGTAATTCATACATT [XGTACX_site8314] | 11.1 ± 0.76
AAATTTTTTATTCTAATTAATATTTACACAATATAT [TGCATGCA_negctrl_site376] | 9.86 ± 0.11
TTCCATGTAGGACATGCATGCAGTTTTTAAAATATT [TGCATGCA_site481] | 11 ± 0.69
TATTATATAAATATACGTACATATACTAACCTTTTA [XGTACX_site6317] | 11.6 ± 0.91

Sequence | gcPBM binding intensity (ln)
TTCTGTATAATATAAAAACAAAAATTAAATTAAAAC [CACACA_negctrl_site81] | 9.89 ± 0.24
CATAAAATATAAAACACACACACATATATATATATA [CACACA_site223] | 10.2 ± 0.38
TATGACATATCCTGTAGTACAACGTATATATAAGAT [XGTACX_site1327] | 11.4 ± 0.86
AATAAAAATAATGAATGTACATATATATATACAATA [XGTACX_site3342] | 10.9 ± 0.4
ATATATAACGTGCACACACACATTTACGTATGAATA [CACACA_site6948] | 10.8 ± 0.45
TTTTATTAAAACCACGCATGCAGAGGAAACGGTGAG [TGCATGCA_site1029] | 10.4 ± 0.34
ATATATAATTTTTGCTGTACACAAAATATTAATTTA [XGTACX_site2057] | 11.5 ± 0.86
AAAAAAAACAATCTCATACACACTAGGGATTAATTA [CACACA_site1776] | 9.81 ± 0.042
ATTTTTTTATAAAATTTTTATATAATTTATTATAAA [GTGCAC_negctrl_site96] | 9.52 ± 0.22
TGAACAAAAAAAAATTGTACTTTTTTTTTAATATTT [XGTACX_site7172] | 11.5 ± 0.98
TTTCTTCGAAATAGAACACTTGTGCAAAATAAGCAA [XGTACX_negctrl_site361] | 10.04 ± 0.078
ATATATACTATAATAGTGCATTAAAAAAGTAAAAAT | 10.2 ± 0.25
TAAAGAGAAATATGTACATGCGAAAATGCCTTAAAT [TGCATGCA_site1050] | 11.2 ± 0.68
AAAATAATCTTTTGATTGCACTGTTACATTTTTTCT [GTGCAC_site9563] | 9.87 ± 0.13
AGACAATAATATAATCGTACAATAAATAAAATAAAA [XGTACX_site5231] | 11.2 ± 0.59
AAATATAATATACAAAGTACTTTTTCATCTTATATA [XGTACX_site8771] | 10.9 ± 0.53
AAATAATATAAACATACACACACACCGATATATATA [CACACA_site8945] | 9.8 ± 0.085
TTTCTAATTTATATCACACACATATAAATATAGTAA [CACACA_site6210] | 9.81 ± 0.028
